Laboratory results: PubChem BioAssay AID1508623 (National Center for Advancing Translational Sciences (NCATS), 2021)
The whole screen tested about 48,000 compounds, of which about 450 (0.94%) were called active. Inconclusive results (about 19%) are left out. The call rests on the fitted dose curve; in most records, active means well fitted inhibition curve with a large enough effect; inconclusive means small, poorly fitted or top-dose-only effect; inactive means no such curve, though single readings can be large or run the other way. This is one part of the list.

Test: Primary qHTS for Identification of Small Molecule Inhibitors of Huntingtin Promoter Activity; further: nearly all actives have a fitted effect of over 50% in size
Settings: HEK293 HTT promoter firefly luciferase reporter (activity 0% = vehicle and -100% = no light), 24 h; series mostly up to 57.5 µM; activity change, negative = inhibition: at the top concentration
Summary of the method: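 HEK293 Fluc reporter, 2,500 cells/well, 24 h pre-culture; cpds up to 57.5 uM final, 24 h 37 degrees C; Dual-Glo, 10 min RT; normalized vehicle = 0%, zero RLU = -100%.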

Activity change, negative = inhibition, inactive:
CCOC(=O)c1c(C)oc2ncnc(Nc3cc(C)cc(C)c3)c12 7.96%
O=C(NCCc1csc2nc(-c3ccccc3F)nn12)C(=O)Nc1cc(F)ccc1F 11.9%
COc1ccc(CNC(=O)c2cnn3c(C)c(Cc4c(F)cccc4Cl)c(C)nc23)cc1 -30.3%
COc1cc(O)cc(O)c1 10.2%
Cc1cccc(N2CCN(C(=O)c3cnc(N4CCCC4)nc3C)CC2)c1C -26.8%
COc1ccc(C2c3c(n(C)c4ccccc34)C(=O)N2CC(=O)Nc2cccc(Cl)c2C)cc1 (configuration not stated) -16.2%
CC1CCCN(C(=O)Cn2ncc3c([nH]c4ccccc43)c2=O)C1 (configuration not stated) -3.03%
CCCCOc1ccc(C(=O)NCc2nnnn2-c2ccc(C)c(C)c2)cc1 -5.91%
COC(=O)c1c(NC(=O)/C(C#N)=C/c2ccccc2)sc2c1C(C(=O)OC)CC2 (configuration not stated) -19.4%
CCc1ccccc1NC(=O)Cn1c(=O)ccc2cc(S(=O)(=O)N3CCCC3)ccc21 -23.5%
CCOC(=O)N1CCc2c(sc3c2c(=O)n(-c2ccc(CC)cc2)c(=O)n3C)C1 1.63%
Cc1ccccc1OCC(=O)N1CCC(c2nc3ccccc3s2)CC1 -29.4%
COc1ccc(C(=O)c2c(N)c(C(=O)Nc3cccc(OC)c3)c3ccccn23)cc1 -13%
Cc1c(C(=O)N(C)C)sc2c1c(=O)n(-c1ccc(Cl)cc1)c(=O)n2CC(=O)C(C)(C)C -1.53%
Cc1ccc(NC(=O)Cn2nc(N3CCN(c4ccccc4)CC3)ccc2=O)cc1F 0%
COc1ccc(-n2c(=O)c3sc4ccccc4c3n(Cc3ccccc3C)c2=O)cc1OC -9.11%
CCC1CCCCN1S(=O)(=O)c1cc2c3c(c1)CC(=O)N3CCC2 (configuration not stated) -25%
COc1ccc(S(=O)(=O)N2Cc3ccccc3CC2C(=O)Nc2ccc(C)cc2C)cc1OC (configuration not stated) -25%
CCOC(=O)c1c(C)[nH]c(C)c1S(=O)(=O)N1CCC(C(=O)NCc2cccc(OC)c2)CC1 -10.7%
CCC(C(=O)O)n1ccc2cc(S(=O)(=O)N3CCCCC3)ccc21 (configuration not stated) -10.7%
CC(=O)c1ccc(NC(=O)CCc2c(C)nn(-c3ccc(N4CCOCC4)nn3)c2C)cc1 10.4%
Cc1cc(C)c(S(=O)(=O)NCCc2cc3ccc(C)c(C)c3[nH]c2=O)c(C)c1 -10.6%
O=c1c2sc3ccccc3c2n(Cc2cccc(Cl)c2)c(=O)n1Cc1ccco1 -25.3%
Cc1cc(C)cc(-n2c(C)nc3cc(C(=O)O)ccc32)c1 -3.85%
COc1ccc(-c2noc(-c3ccc(NCc4cccnc4)c([N+](=O)[O-])c3)n2)cc1OC 0.292%
Cc1cccc(OCc2nc(CC(=O)Nc3ccc(C)c(C)c3)cs2)c1 -14.4%
CCCn1c(CN2CCN(c3ccc(OC)cc3)CC2)nc2c1c(=O)[nH]c(=O)n2C -12%
COc1cc(-c2cc3n(C)c(C)c(CCC(=O)O)c(=O)n3n2)cc(OC)c1OC 1.3%
Cc1cc2oc(C(=O)Nc3ccc(S(=O)(=O)N(C)Cc4ccccc4)cc3)cc(=O)c2cc1C -21.7%
CC(C)CC(=O)Nc1nnc(S(=O)(=O)N(CC(C)C)c2ccccc2)s1 -12.3%
Cc1ccc(CNC(=O)CCC(=O)N2CC3CCCN3c3ccccc32)cc1 (configuration not stated) 0.24%
Cn1c(=O)c2c(ncn2CC2OCCO2)n(C)c1=O -1.85%
CCc1ccccc1N1CC(c2nc3ccccc3n2CCCOc2ccc(Cl)cc2)CC1=O (configuration not stated) 16%
CCOc1ccccc1NC(=O)Cn1c(=O)n(CCC(=O)NCc2ccc3c(c2)OCO3)c(=O)c2ccccc21 1.06%
COc1cc(OC)c(NC(=O)c2csc3c2CCC(C)C3)cc1Cl (configuration not stated) 1.99%
COc1ccccc1CNC(=O)c1cc2cc3ccc(Cl)cc3nc2o1 0.224%
COc1ccc(CCNC(=O)CCc2c(C)nc3c(c(C)nn3-c3ccc(C)c(C)c3)c2C)cc1OC -15.1%
COc1ccccc1N1CCN(c2ccc(NC(=O)c3ccc(C)cc3)cc2C(=O)O)CC1 -19.8%
Cc1c(CNC2CCCCC2)c(C(=O)O)c(C)n1Cc1c(F)cccc1Cl -10.7%
Cc1ccc(NC(=O)CCCn2c(=O)c3cccn3c3ccccc32)c(Cl)c1 28.9%
O=C(CCOc1ccccc1)N(Cc1cccnc1)c1nc2c(F)cc(F)cc2s1 -25.3%
COc1cc(OC)c(NC(=O)N2CCSc3ccccc32)cc1Cl -27.5%
COc1ccc(CNC(=O)c2cnc3sc(N4CCOCC4)nn3c2=O)cc1 1.24%
COc1ccc(C(=O)Nc2cc3c(cc2C(=O)c2ccccc2Cl)OCCO3)cc1 -11.8%
O=C(CSC1=Nc2ccccc2C2=NC(CCC(=O)NC3CCCCC3)C(=O)N12)Nc1cccc(C(F)(F)F)c1 (configuration not stated) -30.6%
CCOc1ccc(NC(=O)CCc2c(C)nc3nc(C)nn3c2C)cc1 12.9%
CCOC(=O)c1c(C)oc2nc(C)nc(NCCCN3CCN(c4ccccc4)CC3)c12 -12.3%
COC(=O)C(CCSC)NC(=O)C1CCN(c2ncnc3c2nc2n3CCCCC2)CC1 (configuration not stated) 10.8%
Fc1ccc(-n2ncc3c(NC4CCCCCC4)ncnc32)cc1 14%
CCNC(=O)CC1C(=O)N(c2ccc(F)cc2)C(=O)N1CCOC (configuration not stated) -11.3%
COc1ccccc1CNC(=O)c1ccc(Cn2c(SCc3ccccc3)nc3cccnc32)cc1 -14.1%
CCOc1ccc(C(=O)N2CCC(c3nnc(-c4ccccc4OC)o3)CC2)cc1 2.96%
CCCCCCCC(=O)OCC(COC(=O)CCCCCCC)OC(=O)CCCCCCC -4.02%
O=C(CCc1ccccc1)NCc1nc2cccnc2n1Cc1ccc(F)cc1 -9.14%
CCOC(=O)N1CCc2c(sc3c2c(=O)n(-c2ccccc2)c(=O)n3CC(=O)Nc2ccc(OC)cc2OC)C1 -5.17%
COc1ccc(NC(=O)CN2CCN(Cc3ccccc3)S2(=O)=O)c(OC)c1 -1.31%
CCOc1ccc(OCC)c(NC(=O)c2cc(S(=O)(=O)N3CCCC3)cn2C)c1 -7.37%
COc1ccc(NC(=O)Cn2c(=O)n(Cc3ccco3)c(=O)c3sc4ccccc4c32)cc1Cl -15%
Cc1ccc(N2CCn3c2nc2c3c(=O)n(Cc3cccc(Cl)c3)c(=O)n2C)cc1C -3.31%
O=c1c(-c2ccc(O)cc2)coc2cc(OC3O[C@H](CO)[C@H](O)[C@H](O)[C@H]3O)cc(O)c12 (some centres not stated) 10.7%
O=C(Nc1ccc(Cl)cc1)c1ccc2c(c1)N(Cc1ccccc1)CCS2 -22%
O=C(CN1C(=O)CCSc2ccc(S(=O)(=O)N3CCCC3)cc21)Nc1ccccc1Cl -8.41%
